# From publication PMC10629583, “Specific inhibition of an anticancer target, polo-like kinase 1, by allosterically dismantling its mechanism of substrate recognition” (Proceedings of the National Academy of Sciences of the …, 2023)
# Tests used:
# Test in all cases: PDSP off-target binding screen
# 5-HT3 = biological target: T1, 5-HT3 (Homo sapiens, UniProt P46098); details: for inhibition at 10 µM: read-out: Primary screen AVE(%inhib)±SD; for Ki: read-out: Secondary screen Ki
# T1 construct: NIMH Psychoactive Drug Screening Program (UNC)
# T1 sequence (P46098 24-478): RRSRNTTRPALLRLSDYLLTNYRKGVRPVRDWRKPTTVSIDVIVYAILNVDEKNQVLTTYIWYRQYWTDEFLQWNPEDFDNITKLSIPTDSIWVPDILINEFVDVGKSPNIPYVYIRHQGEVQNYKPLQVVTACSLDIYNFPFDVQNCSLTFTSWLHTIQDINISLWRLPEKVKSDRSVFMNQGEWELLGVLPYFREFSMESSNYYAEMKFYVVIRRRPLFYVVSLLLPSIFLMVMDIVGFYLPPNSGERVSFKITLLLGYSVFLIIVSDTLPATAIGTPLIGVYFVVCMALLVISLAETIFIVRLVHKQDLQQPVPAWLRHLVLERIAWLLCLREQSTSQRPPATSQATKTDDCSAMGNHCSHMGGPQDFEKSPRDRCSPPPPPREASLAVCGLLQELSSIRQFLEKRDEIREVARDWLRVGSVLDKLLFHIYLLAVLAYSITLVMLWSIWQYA
# Source text: (§1) PDSP no. Compound Interactions (Ki, µM)
# (§2) 60477 Allopole-A None observed.
# (§3) trigger a secondary screen at that receptor.
# 5-HT5A = biological target: T2, 5-HT5A (Homo sapiens, UniProt P47898); details: for inhibition at 10 µM: read-out: Primary screen AVE(%inhib)±SD; for Ki: read-out: Secondary screen Ki
# T2 construct: NIMH Psychoactive Drug Screening Program (UNC)
# T2 sequence (P47898 whole entry): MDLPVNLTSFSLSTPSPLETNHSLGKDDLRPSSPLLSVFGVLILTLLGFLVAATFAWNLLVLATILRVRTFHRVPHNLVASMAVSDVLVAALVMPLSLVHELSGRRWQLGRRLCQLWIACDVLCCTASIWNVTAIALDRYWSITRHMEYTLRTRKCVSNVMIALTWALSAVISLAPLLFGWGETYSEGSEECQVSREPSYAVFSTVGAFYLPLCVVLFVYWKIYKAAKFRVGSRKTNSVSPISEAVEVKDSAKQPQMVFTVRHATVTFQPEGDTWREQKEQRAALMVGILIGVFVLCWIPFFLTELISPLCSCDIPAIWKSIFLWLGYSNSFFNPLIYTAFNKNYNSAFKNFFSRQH
# Source text: as §1, §2, §3
# BZP Rat brain site = details: for Primary screen AVE(%inhib)±SD: 10 µM; for Ki: read-out: Secondary screen Ki
# Source text: as §1, §2, §3
# Beta3 = Beta3 (Homo sapiens, UniProt P13945); details: for inhibition at 10 µM: read-out: Primary screen AVE(%inhib)±SD; for Ki: read-out: Secondary screen Ki
# Sequence of Beta3 (P13945 whole entry): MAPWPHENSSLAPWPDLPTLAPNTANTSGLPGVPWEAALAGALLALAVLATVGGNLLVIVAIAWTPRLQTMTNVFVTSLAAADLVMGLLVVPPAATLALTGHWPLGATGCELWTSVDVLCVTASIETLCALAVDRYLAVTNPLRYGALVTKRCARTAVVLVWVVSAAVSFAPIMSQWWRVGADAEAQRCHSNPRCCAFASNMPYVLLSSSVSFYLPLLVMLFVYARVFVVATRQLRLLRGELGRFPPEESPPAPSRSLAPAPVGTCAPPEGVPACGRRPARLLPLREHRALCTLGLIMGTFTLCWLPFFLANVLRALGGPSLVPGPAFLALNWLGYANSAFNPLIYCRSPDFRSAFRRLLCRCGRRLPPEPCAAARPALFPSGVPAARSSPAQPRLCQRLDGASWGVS
# Source text: as §1, §2, §3
# D1 = D1 (Homo sapiens, UniProt P21728); details: for inhibition at 10 µM: read-out: Primary screen AVE(%inhib)±SD; for Ki: read-out: Secondary screen Ki
# Sequence of D1 (P21728 whole entry): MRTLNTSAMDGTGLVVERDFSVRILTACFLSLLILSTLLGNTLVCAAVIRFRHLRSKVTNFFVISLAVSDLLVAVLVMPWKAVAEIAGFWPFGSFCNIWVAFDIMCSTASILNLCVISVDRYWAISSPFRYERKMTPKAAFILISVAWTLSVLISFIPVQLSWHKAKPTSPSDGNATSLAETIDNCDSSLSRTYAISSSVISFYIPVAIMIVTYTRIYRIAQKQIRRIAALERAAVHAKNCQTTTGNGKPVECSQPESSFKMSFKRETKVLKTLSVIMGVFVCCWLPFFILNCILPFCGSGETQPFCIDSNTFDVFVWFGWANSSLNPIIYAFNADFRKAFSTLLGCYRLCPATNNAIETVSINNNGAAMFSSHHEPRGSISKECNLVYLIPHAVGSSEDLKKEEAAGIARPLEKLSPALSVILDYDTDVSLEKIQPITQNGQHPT
# Source text: as §1, §2, §3
# D2 = D2 (Homo sapiens, UniProt P14416); details: for inhibition at 10 µM: read-out: Primary screen AVE(%inhib)±SD; for Ki: read-out: Secondary screen Ki
# Sequence of D2 (P14416 whole entry): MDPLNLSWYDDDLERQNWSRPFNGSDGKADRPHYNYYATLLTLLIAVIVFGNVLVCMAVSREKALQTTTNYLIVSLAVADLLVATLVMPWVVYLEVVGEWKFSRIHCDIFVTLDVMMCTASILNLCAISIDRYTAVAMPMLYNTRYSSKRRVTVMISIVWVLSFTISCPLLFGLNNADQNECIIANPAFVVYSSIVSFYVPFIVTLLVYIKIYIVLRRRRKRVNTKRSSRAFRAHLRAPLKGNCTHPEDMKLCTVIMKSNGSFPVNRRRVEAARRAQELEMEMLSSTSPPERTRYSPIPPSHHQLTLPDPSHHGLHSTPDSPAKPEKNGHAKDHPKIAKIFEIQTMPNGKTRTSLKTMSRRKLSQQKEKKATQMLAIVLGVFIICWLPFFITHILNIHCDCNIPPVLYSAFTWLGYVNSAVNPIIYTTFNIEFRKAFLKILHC
# Source text: as §1, §2, §3
# D3 = D3 (Homo sapiens, UniProt P35462); details: for inhibition at 10 µM: read-out: Primary screen AVE(%inhib)±SD; for Ki: read-out: Secondary screen Ki
# Sequence of D3 (P35462 whole entry): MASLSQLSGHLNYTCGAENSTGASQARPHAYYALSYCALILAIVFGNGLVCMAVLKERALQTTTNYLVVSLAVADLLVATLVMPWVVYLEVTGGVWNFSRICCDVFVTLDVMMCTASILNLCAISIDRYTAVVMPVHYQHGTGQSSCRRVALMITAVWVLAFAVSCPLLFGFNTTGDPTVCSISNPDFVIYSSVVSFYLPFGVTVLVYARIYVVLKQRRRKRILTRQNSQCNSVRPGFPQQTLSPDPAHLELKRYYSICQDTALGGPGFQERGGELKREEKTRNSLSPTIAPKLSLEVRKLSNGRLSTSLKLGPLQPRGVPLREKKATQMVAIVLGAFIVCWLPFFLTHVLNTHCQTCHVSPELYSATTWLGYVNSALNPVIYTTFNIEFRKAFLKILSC
# Source text: as §1, §2, §3
# D5 = D5 (Homo sapiens, UniProt P21918); details: for inhibition at 10 µM: read-out: Primary screen AVE(%inhib)±SD; for Ki: read-out: Secondary screen Ki
# Sequence of D5 (P21918 whole entry): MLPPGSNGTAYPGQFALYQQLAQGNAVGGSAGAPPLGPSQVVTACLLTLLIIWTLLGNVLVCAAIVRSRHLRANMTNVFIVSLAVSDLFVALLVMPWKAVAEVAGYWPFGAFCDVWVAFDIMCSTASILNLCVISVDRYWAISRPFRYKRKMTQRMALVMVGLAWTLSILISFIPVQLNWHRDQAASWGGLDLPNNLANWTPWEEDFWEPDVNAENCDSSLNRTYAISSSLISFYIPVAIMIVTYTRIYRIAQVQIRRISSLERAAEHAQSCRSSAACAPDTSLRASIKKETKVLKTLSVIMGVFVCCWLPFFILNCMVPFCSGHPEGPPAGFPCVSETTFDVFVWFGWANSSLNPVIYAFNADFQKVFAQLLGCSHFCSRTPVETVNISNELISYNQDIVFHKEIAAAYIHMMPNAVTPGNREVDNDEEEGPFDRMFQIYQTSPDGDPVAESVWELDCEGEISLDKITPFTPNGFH
# Source text: as §1, §2, §3
# H3 = H3 (Homo sapiens, UniProt Q9Y5N1); details: for inhibition at 10 µM: read-out: Primary screen AVE(%inhib)±SD; for Ki: read-out: Secondary screen Ki
# Sequence of H3 (Q9Y5N1 whole entry): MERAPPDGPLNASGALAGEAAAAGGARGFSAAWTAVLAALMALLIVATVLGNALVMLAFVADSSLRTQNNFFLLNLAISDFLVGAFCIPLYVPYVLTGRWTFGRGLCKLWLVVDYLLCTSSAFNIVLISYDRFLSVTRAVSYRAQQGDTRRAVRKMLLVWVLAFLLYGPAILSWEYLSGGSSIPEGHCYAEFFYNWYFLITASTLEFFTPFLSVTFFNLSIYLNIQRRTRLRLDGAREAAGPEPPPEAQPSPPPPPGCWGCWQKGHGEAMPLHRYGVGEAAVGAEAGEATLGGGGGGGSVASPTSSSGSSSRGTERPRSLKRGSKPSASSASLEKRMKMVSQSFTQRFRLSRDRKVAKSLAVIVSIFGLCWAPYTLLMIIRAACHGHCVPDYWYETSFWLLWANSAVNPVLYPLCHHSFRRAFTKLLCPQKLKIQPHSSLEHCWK
# Source text: as §1, §2, §3
# H4 = H4 (Homo sapiens, UniProt Q9H3N8); details: for inhibition at 10 µM: read-out: Primary screen AVE(%inhib)±SD; for Ki: read-out: Secondary screen Ki
# Sequence of H4 (Q9H3N8 whole entry): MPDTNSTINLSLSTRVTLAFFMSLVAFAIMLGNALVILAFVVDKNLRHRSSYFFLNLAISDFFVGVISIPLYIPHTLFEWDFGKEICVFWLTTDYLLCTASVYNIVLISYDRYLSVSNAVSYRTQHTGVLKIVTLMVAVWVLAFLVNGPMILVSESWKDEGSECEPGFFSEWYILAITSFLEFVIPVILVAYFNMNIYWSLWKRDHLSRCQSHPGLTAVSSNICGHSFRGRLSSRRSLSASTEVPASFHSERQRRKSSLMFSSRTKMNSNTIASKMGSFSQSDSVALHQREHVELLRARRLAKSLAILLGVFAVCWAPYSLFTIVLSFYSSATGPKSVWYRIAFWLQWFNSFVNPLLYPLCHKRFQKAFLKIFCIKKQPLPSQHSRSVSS
# Source text: as §1, §2, §3
# KOR = KOR (Homo sapiens, UniProt P41145); details: for inhibition at 10 µM: read-out: Primary screen AVE(%inhib)±SD; for Ki: read-out: Secondary screen Ki
# Sequence of KOR (P41145 whole entry): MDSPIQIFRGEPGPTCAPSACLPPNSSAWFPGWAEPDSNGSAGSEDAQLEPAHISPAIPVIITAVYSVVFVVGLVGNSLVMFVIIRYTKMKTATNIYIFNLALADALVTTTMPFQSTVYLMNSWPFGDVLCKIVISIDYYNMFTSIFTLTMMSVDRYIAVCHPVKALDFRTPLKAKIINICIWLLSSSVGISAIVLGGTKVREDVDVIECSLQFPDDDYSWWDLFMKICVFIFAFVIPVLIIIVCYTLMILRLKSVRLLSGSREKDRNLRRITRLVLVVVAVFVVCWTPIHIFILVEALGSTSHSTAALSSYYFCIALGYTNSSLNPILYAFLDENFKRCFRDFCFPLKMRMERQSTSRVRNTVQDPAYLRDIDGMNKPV
# Source text: as §1, §2, §3
# M3 = M3 (Homo sapiens, UniProt P20309); details: for inhibition at 10 µM: read-out: Primary screen AVE(%inhib)±SD; for Ki: read-out: Secondary screen Ki
# Sequence of M3 (P20309 whole entry): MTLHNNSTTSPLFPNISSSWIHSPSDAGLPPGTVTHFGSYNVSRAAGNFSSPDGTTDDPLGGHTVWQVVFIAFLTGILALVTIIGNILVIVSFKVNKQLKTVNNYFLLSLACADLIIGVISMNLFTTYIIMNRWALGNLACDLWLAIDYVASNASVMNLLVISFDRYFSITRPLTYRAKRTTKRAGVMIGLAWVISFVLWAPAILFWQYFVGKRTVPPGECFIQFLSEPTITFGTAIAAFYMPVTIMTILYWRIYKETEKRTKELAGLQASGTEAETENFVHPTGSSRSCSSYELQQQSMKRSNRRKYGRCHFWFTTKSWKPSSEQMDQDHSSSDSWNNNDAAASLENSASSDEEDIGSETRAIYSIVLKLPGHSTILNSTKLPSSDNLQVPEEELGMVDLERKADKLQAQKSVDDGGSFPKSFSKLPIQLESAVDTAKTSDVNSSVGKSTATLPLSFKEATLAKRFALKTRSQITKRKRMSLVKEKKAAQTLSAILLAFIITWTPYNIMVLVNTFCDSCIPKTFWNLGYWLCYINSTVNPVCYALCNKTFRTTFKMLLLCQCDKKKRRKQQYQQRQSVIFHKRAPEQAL
# Source text: as §1, §2, §3
# PBR = PBR (Rattus norvegicus, UniProt P16257); details: for inhibition at 10 µM: read-out: Primary screen AVE(%inhib)±SD; for Ki: read-out: Secondary screen Ki
# Source text: as §1, §2, §3
# GABAA = tested on: GABAA; design: species or system human; details: for Primary screen AVE(%inhib)±SD: 10 µM; for Ki: read-out: Secondary screen Ki
# Source text: as §1, §2, §3
Structure (SMILES),inhibition at 10 µM (5-HT3) [%],Ki (5-HT3) [µM],inhibition at 10 µM (5-HT5A) [%],Ki (5-HT5A) [µM],Primary screen AVE(%inhib)±SD (BZP Rat brain site) [%],Ki (BZP Rat brain site) [µM],inhibition at 10 µM (Beta3) [%],Ki (Beta3) [µM],inhibition at 10 µM (D1) [%],Ki (D1) [µM],inhibition at 10 µM (D2) [%],Ki (D2) [µM],inhibition at 10 µM (D3) [%],Ki (D3) [µM],inhibition at 10 µM (D5) [%],Ki (D5) [µM],inhibition at 10 µM (H3) [%],Ki (H3) [µM],inhibition at 10 µM (H4) [%],Ki (H4) [µM],other results
O=c1c2sc(Cl)cc2n2c(=S)[nH]nc2n1CC1CC1 [Allopole-A],-3.8 ± 3.1,> 10,-1.4 ± 14.4,> 10,2.3±21.8,> 10,17.9 ± 8.6,> 10,-17.2 ± 25,> 10,-27.4 ± 13.1,> 10,-7 ± 21.7,> 10,28.7 ± 10.7,> 10,-18.5 ± 3.8,> 10,-4.5 ± 11.4,> 10,inhibition at 10 µM (KOR): -0.3 ± 8.7%; Ki (KOR): > 10 µM; inhibition at 10 µM (M3): 7.5 ± 45.6%; Ki (M3): > 10 µM; inhibition at 10 µM (PBR): 5.3 ± 8.3%; Ki (PBR): > 10 µM; Primary screen AVE(%inhib)±SD (GABAA): 35.7±11.1%; Ki (GABAA): > 10 µM
Cn1cnc([N+](=O)[O-])c1Sc1nnc2n(CC3CC3)c(=O)c3sc(Cl)cc3n12 [Allopole],-0.8 ± 4.6,> 10,24.5 ± 9.3,> 10,9.5±7.6,> 10,30.8 ± 22.8,> 10,21.5 ± 6.8,> 10,3.6 ± 6.6,> 10,12.8 ± 12.8,> 10,20.9 ± 9.5,> 10,-12.5 ± 7.9,> 10,8.2 ± 3.1,> 10,inhibition at 10 µM (KOR): 3.7 ± 4.1%; Ki (KOR): > 10 µM; inhibition at 10 µM (M3): 48.3 ± 21.9%; Ki (M3): > 10 µM; inhibition at 10 µM (PBR): -2.1 ± 5.3%; Ki (PBR): > 10 µM; Primary screen AVE(%inhib)±SD (GABAA): 33.3±4.2%; Ki (GABAA): > 10 µM
